From paper PMC4336329 (PLoS ONE, 2015)
The whole screen tested about 310,000 compounds, of which about 14,000 (4.5%) showed an effect of 50% or more. Effects have a minus sign here. Some of the results follow.

Each compound was assayed against human ether-à-go-go-related gene (hERG) potassium channel (human, UniProt Q12809) (assay: primary screen, population patch clamp on CHO cells stably expressing hERG).
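Note: peak tail current of the secondary pulse compared with the same well before compound.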

Chain of human ether-à-go-go-related gene (hERG) potassium channel (Q12809 whole entry, looked up): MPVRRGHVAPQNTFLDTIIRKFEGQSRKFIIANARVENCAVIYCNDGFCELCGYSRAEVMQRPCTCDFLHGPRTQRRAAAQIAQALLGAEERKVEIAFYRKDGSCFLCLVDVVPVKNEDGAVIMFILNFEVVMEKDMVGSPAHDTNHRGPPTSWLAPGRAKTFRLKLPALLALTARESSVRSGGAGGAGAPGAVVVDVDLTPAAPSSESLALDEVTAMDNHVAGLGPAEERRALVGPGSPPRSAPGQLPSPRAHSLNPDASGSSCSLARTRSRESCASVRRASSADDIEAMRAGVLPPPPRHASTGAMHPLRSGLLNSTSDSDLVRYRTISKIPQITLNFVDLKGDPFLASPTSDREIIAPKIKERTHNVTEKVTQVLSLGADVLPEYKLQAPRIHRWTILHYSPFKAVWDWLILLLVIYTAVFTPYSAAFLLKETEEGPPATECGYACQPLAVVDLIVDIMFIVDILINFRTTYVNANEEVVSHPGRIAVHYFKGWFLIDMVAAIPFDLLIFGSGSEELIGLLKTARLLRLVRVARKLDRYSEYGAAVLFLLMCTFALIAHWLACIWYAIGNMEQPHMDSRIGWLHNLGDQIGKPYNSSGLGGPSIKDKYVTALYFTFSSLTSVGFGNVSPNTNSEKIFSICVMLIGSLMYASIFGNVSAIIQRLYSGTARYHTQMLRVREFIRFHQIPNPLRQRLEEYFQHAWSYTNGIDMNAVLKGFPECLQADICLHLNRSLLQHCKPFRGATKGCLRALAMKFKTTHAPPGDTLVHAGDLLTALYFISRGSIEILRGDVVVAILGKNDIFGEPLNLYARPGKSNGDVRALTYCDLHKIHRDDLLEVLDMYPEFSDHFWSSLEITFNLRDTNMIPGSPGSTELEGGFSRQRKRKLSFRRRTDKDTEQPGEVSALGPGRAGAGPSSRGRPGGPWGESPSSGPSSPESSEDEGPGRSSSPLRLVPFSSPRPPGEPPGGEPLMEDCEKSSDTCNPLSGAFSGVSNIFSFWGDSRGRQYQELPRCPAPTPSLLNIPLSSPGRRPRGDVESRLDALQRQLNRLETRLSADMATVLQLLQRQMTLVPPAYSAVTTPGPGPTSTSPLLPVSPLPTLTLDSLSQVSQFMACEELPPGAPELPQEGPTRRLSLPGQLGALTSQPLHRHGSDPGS

Compound	hERG current change (%, negative = inhibition) at 10uM [%]
CC1(C)CC(=O)N(CC(=O)NCc2ccccc2)c2ccccc2S1(=O)=O	3.5
CCC(OC(C)=O)c1cc2c(cc1[N+](=O)[O-])OCCO2 (stereo not drawn)	0.207
COCCN(C(=O)CNC(=O)c1ccco1)C(C(=O)NC1CCCC1)c1cccs1 (stereo not drawn)	13.5
C(=N\Nc1nc(N2CCCC2)nc(N2CCCC2)n1)/c1ccccc1OCc1ccccc1	21
Cc1cccc(CSC2=CS(=O)(=O)c3ccccc3N2)c1	-9.07
CCNC(=O)NC(=O)COC(=O)CCCSc1nc2ccccc2s1	-8.6
Cc1c(Cl)cccc1NC(=O)Nc1cc(C(C)(C)C)on1	20.7
O=C(C1CCN(S(=O)(=O)c2cccc3nsnc23)CC1)N1CCc2ccccc21	-25.8
CCCNc1nc(C)cc(-c2cc(C(=O)NC3CCCC3)on2)n1	15.8
COc1ccc(NC(=O)COc2ccc(/C=N/n3c(C)nnc3C)cc2OC)cc1	-25
O=C(CCn1c2c(c3ccccc31)CCCC2)NNC(=O)c1ccc(Cl)c([N+](=O)[O-])c1	-14.6
Cc1cccc(C(=O)Nc2ccc(C(=O)N/N=C/c3cccnc3)cc2)c1	6.76
CCOCC(=O)N1CCN(c2ccc(F)cc2)CC1	-15.9
O=C(O)c1ccccc1/C=N/Nc1ccc(S(=O)(=O)N2CCOCC2)cc1[N+](=O)[O-]	4.4
COCCN1CCN(Cc2cn[nH]c2-c2cc3ccccc3o2)CC1	-6.62
O=C(CCN1N=C(c2ccccc2)CCC1=O)NCC1CCCO1 (stereo not drawn)	19
CC1=C/C(=C(/c2ccc(O)c(C)c2)c2ccccc2S(=O)(=O)[O-])C=CC1=O.[Na+]	3.9
CN(C(=S)Nc1ccc(Oc2ccccc2)cc1)C1CCCCC1	-9.37
CCC(Sc1n[nH]c(=O)[nH]c1=O)C(=O)OCc1ccccc1 (stereo not drawn)	15.4
Cc1ccn2c(=O)nc(SCC(=O)N3CCN(c4ccccc4)CC3)nc2c1	-28.6
Cc1ccc2nc(C)cc(Nc3ccc([N+](=O)[O-])cc3)c2c1	-14.4
CCOc1ccc(Cl)cc1/C=N/NC(=O)c1ccccc1	2.86
O=C(Cn1cccc1C(=O)c1ccccc1)NCc1ccc(Cl)cc1	18.7

Compound	hERG current change (%, negative = inhibition) at 10uM [%]
Brc1ccc2[nH]c3nc(SCCN4CCOCC4)nnc3c2c1.Cl	-5.08
CCn1cc(CNCc2ccc(OCC(O)CN(C)Cc3ccccc3)cc2)cn1 (stereo not drawn)	9.9
CCS(=O)(=O)c1ccc(O)c(NC(=O)COc2ccccc2)c1	12.8
COc1ccc(N(CC(=O)NCc2ccccc2)S(=O)(=O)c2c(C)nn(C)c2C)cc1	-11.5
CC(NCC(=O)Nc1ccccc1C(=O)NC1CC1)c1ccc(F)cc1F (stereo not drawn)	-32.4
COc1ccc(Cn2nnnc2C(c2cccs2)N2CCOCC2)cc1 (stereo not drawn)	-3.21
Cc1ccc(S(=O)(=O)N(C)c2ccc(C(=O)N3CCC(C(N)=O)CC3)cc2)cc1	-0.944
CCOC(=O)N1CCC(Nc2nc3ccccc3n3nnnc23)CC1	-23.7
COc1ccc(NC(=O)CN(C)C(=O)CCCSc2nc3ccccc3[nH]2)cc1	-22.7
c1ccc2c(c1)OCC(c1csc3ncnc(N4CCCCC4)c13)O2 (stereo not drawn)	19
O=C(CSc1ccc(-c2ccc(Br)cc2)nn1)NCC1CCCO1 (stereo not drawn)	3.65
COCCn1c(CN2CCN(c3ccccc3)CC2)nc2c1c(=O)n(C)c(=O)n2C	-13.8
CCCCCCC(=O)N1CCC(c2nc3c(nnn3Cc3ccccc3Cl)c(=O)[nH]2)CC1	-29.7
COc1ccccc1NC(=O)/C(=C/c1cccs1)NC(=O)c1ccco1	-33.1
CN1CCN(S(=O)(=O)Cc2ccc(Cl)cc2)CC1	-1.42
O=C1C2CC(O)CN2C(=S)N1Cc1ccccc1 (stereo not drawn)	14.7
S=C1NC2=C(C(c3ccc(Br)cc3)N1)N1CCC2CC1 (stereo not drawn)	-6.25
CCOc1ccc(CNC(=O)CN2C(=O)CSc3ccc(S(=O)(=O)N4CCOCC4)cc32)cc1OC	-17.7
CC(=O)Nc1ccc(NC(=O)CSc2ccccn2)cc1	-8.09
COc1ccc(S(=O)(=O)N2CCCC(C(=O)N3CCN(C)CC3)C2)cc1C (stereo not drawn)	-2.79
CC(C)Cc1nc(Cl)c(C#N)c2c1CCCC2	13.3
Cc1cc(C)n2cc(CSc3nnnn3-c3ccccc3C)nc2n1	-58.3
COc1cscc1C(N)=O	16.1

Compound	hERG current change (%, negative = inhibition) at 10uM [%]
COc1cccc(/C=N/n2c(C3CCCCC3)n[nH]c2=S)c1	16.8
Cc1ccccc1CC1(CO)CCCN(Cc2cn[nH]c2-c2ccccc2)C1 (stereo not drawn)	-23.9
CC(=O)Nc1ccc(S(=O)(=O)NNC(=O)COc2ccc(C(C)(C)C)cc2)cc1	12.7
Cl.O=S1(=O)N=C(N(CCO)/N=C/c2ccncc2)c2ccccc21	-19.9
O=C(CCN1C(=O)COc2ccccc21)NCc1cccs1	-0.17
N#Cc1ccccc1Cn1c(=O)n(C2CCCC2)c(=O)c2ccccc21	-12.5
O=C(CSc1nnc(NC(=O)c2ccco2)s1)Nc1ccccc1Cl	22.1
O=C(Sc1ccc(Cl)cc1)c1ccccn1	19.4
O=C(Nn1cnnc1)c1ccc(Cl)c(Cl)c1	-7.13
CCOC(=O)/C(C#N)=C/Nc1ccccc1NS(=O)(=O)c1ccc(C)c(C)c1	10.2
O=C(CCc1nc2ccccc2[nH]1)N1CCc2ccccc2C1	-32.1
C=C(CCC(=O)c1ccccc1)C(=O)c1ccccc1	7.85
NC(=O)CC(NC(=O)Cc1cccc2ccccc12)c1ccc(NCc2cc(F)ccc2F)c([N+](=O)[O-])c1 (stereo not drawn)	14.4
Cc1cccc(OCCNC(=O)c2ccc(Oc3ccc(C(F)(F)F)cc3[N+](=O)[O-])cc2)c1	4.59
Cc1nnc(SCC(=O)N2CCN(c3cccc(Cl)c3)CC2)n1C1CC1	-20
CC(=O)NC(c1cccs1)c1cc(Cl)c2ccccc2c1O (stereo not drawn)	-14.3
O=C1c2ccccc2C(=O)C1c1ccccc1	15.4
COc1ccc(NC(=O)CSc2nnc(NC(=O)c3ccc(S(=O)(=O)N4CCOCC4)cc3)s2)cc1	17.1
CCOC(=O)c1c(C)[nH]c(C(=O)C(C)Sc2ccc(Cl)cc2)c1C (stereo not drawn)	6.93
Cn1c(=O)c2c(nc(SCC(=O)NCc3ccc4c(c3)OCO4)n2Cc2ccccc2)n(C)c1=O	-46.9
CCCc1ccc(O)c(N=Cc2cc(Br)cc(OCC)c2O)c1	-22
O=C1CCN(C(=S)NCCc2ccccc2)CC1	13.7
COc1cccc(OC)c1C(=O)NC(=O)NNc1cc(C(F)(F)F)cc(C)n1	15.7

Compound	hERG current change (%, negative = inhibition) at 10uM [%]
CC1Cc2ccccc2N1C(=O)CSc1nnc(Cn2nnc3ccccc32)n1C (stereo not drawn)	-12.8
CN1CCN(NC(=O)c2cc(Br)ccc2Cl)CC1	13.4
COc1ccc(CNC(=O)CCn2c(C)csc2=O)cc1	-1.34
COc1cccc(CN(C)C(=O)c2cc(-c3ccc(F)cc3)nc3ccccc23)c1	-1.11
N#C/C(=C\Nc1ccc(Cl)cn1)S(=O)(=O)c1ccccn1	11.2
CC1(C)OC(=O)C(=NNc2ccc(Br)cc2)C(=O)O1	7.12
COc1cc(COC(=O)c2cnc(C)cn2)c(OC)cc1Br	31
O=C1OC2CCC1(c1ccccc1)C2 (stereo not drawn)	4.12
COCCOC(=O)c1c(N)n(Cc2ccco2)c2nc3ccccc3nc12	-56.7
O=C(O)C1CCN(C(=O)Cc2ccccc2)CC1	6.27
COc1ccc(-c2cn(CCO)c(-c3ccc(Cl)nc3)n2)cc1	-9.71
CCOc1cc(C)nc(Oc2ccc(=O)[nH]n2)n1	1.87
O=c1cc(-c2ccccc2Cl)c2c([nH]1)CCC2	15.2
COc1cc2c(cc1NC(=O)c1ccc(C)c([N+](=O)[O-])c1)oc1ccccc12	12.1
CC1CCCC(NC(=O)COC(=O)c2cn(C)c3ccccc23)C1C (stereo not drawn)	7.7
Cc1cc(Br)ccc1NC(=O)CN(C)C(=O)CCSc1ccc(F)cc1	0.468
COc1cc(OC)cc(C(=O)N2CCN(Cc3cccc(F)c3)CC2)c1.O=C(O)C(=O)O	-31.4
Cc1cccc2sc(NNC(=O)c3cc(-c4cccs4)nc4ccccc34)nc12	13.4
CCCCOc1ccc(CSCCNC(=S)Nc2ccccc2)cc1	19.8
COC(=O)c1cc2sccc2n1CC(=O)N1CCCc2ccccc21	-5.33
CCOc1cc(/C=C(\C(=O)O)c2ccc(S(=O)(=O)N3CCCC3)s2)ccc1OC	3.4
